# In PubChem BioAssay AID1963576 (National Center for Advancing Translational Sciences (NCATS), 2024):
# About 60 (0.1%) of roughly 46,000 compounds were called active. Another 3% or so got no clear call; they are omitted. Calls come from the whole dose curve; as a rule, active = well fitted inhibition curve with a large enough effect; inconclusive = small, poorly fitted or top-dose-only effect; inactive = no such curve, though single readings can be large or run the other way. The list shows a part of the results.
# Assay: Primary qHTS assay for Inhibitors of ovarian cancer metastasis using an organotypic tumor microenvironment (TME) model.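 For activity change, negative = inhibition: plate controls were DMSO wells for no effect and tomatine positive control wells for full effect.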 Note: nearly all actives have a fitted effect of over 65% in size.
# Conditions: SKOV3ip1-GFP adhesion/invasion on 3D omental model, fluorescence; series mostly up to 45.8 µM; activity change, negative = inhibition: at the top concentration
# Method in brief: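 qHTS, 4-pt dose (0.36-46 umol/L); SKOV3ip1-GFP, 1,200 cells/well, no FBS; primary omental fibroblast/mesothelial co-culture 48 h pre-grown; 2 h RT + 16 h 37 C; PBS wash, 4% PFA; GFP count 488/509 nm.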
SMILES,"activity change, negative = inhibition",outcome
CCNc1c(NC(=O)c2ccccc2OCC)c(=O)oc2ccccc12,inactive: -11.5%,–
COc1ccc(N(C(=O)c2ccccc2C)S(=O)(=O)c2ccc3c(c2)n(C)c(=O)n3C)cc1,inactive: 5.51%,–
COc1ccc(OC)c(CCNC(=O)c2sc3nc4n(c(=O)c3c2C)CCCC4)c1,–,inactive
CCOc1ccccc1NS(=O)(=O)c1c(C(=O)OC)sc2cccc(F)c12,inactive: 2.96%,–
CCN(c1ncnc2c1c(-c1ccccc1)cn2-c1ccccc1)C1CCCCC1,inactive: 8.46%,–
Cc1ccc(OCC(=O)OCc2cc(=O)n3nc(C4CCCCC4)sc3n2)cc1,inactive: -3.66%,–
Cc1ccc(S(=O)(=O)N2CCCc3cc(NC(=O)c4ccc(C(F)(F)F)cc4)ccc32)cc1,inactive: -4.77%,–
COc1ccc(-n2c(=O)c3c(C)c(C)sc3n(Cc3ccc(F)cc3)c2=O)c(OC)c1,–,inactive
CCOC(=O)C1=C(CNCc2ccccc2)NC(=O)NC1c1ccc(C)cc1 (stereo not given),inactive: -7.38%,–
COc1cccc(-c2nc(SC(C(C)=O)C(=O)N(C)C)c3c(=O)n(C)c(=O)n(C)c3n2)c1 (stereo not given),inactive: 0.653%,–
Cc1ccc(N2C(=O)[C@@H]3CSC(c4ccc(C(F)(F)F)cc4)N3C2=O)cc1 (stereo not given in full),inactive: 6.15%,–
Cc1cc(=O)n(C(C)C(=O)NCc2ccccc2Cl)c2c1c(C)nn2-c1ccccc1 (stereo not given),inactive: 0.329%,–
CCOc1ccccc1NC(=O)C1CCN(S(=O)(=O)Cc2ccccc2)CC1,–,inactive
COC(=O)C1=C(C)NC(=O)NC1c1cn(-c2ccccc2)nc1-c1ccc(OC)c(Cl)c1 (stereo not given),inactive: -1.34%,–
CCn1cc(C(=O)NCc2ccccc2)c(=O)c2cc(S(=O)(=O)N3CCOCC3)ccc21,–,inactive
CCc1ccc(C2N3CC4(C)CN2CC(c2ccccc2)(C3)C4=O)cc1 (stereo not given),inactive: -13.5%,–
Cc1c2cnn(CC(=O)N3CCCCC3)c(=O)c2c(C)n1Cc1ccc(Cl)cc1,inactive: 20.6%,–
Cc1cc(O)c(C(c2ccccc2Cl)N2CCCCC2)c(=O)n1Cc1ccco1 (stereo not given),–,inactive
Cc1ccc(C(C)C)c(OCC(=O)Nc2c(C(=O)c3ccc(F)cc3)oc3ccccc23)c1,inactive: -3.35%,–
COc1cc(OC)c(C2C=C(c3ccc(C)cc3)Nc3c(C(=O)Nc4ccccc4)cnn32)cc1OC (stereo not given),inactive: 3.15%,–

SMILES,"activity change, negative = inhibition",outcome
Cc1c(Cl)cccc1NC(=O)C(=O)NCCc1csc(-c2cccc(F)c2)n1,inactive: 0.348%,–
O=C(NCCc1ccc(Cl)cc1)c1ccc2c(c1)N(Cc1ccc(F)cc1Cl)C(=O)CS2,–,inactive
CCOC(=O)C(C)NC(=O)c1cc2c(=O)[nH]c3ccc(C)cc3c2s1 (stereo not given),inactive: 2.23%,–
CC(NC(=O)c1ccc(N2Cc3ccccc3Oc3ncccc32)s1)c1ccccc1 (stereo not given),–,inactive
Cc1ccc(/C=C/c2onc(C)c2S(=O)(=O)N2CCC(C(=O)NCc3ccc(Cl)cc3)CC2)cc1,–,inactive
COc1ccc(-c2nc(CSc3nc4ncccc4[nH]3)c(C)o2)cc1OC,–,inactive
CC(NC(=O)Cc1ccc(NC(=O)N2CCCCc3ccccc32)cc1)c1ccccc1 (stereo not given),inactive: 1.54%,–
O=c1cc(-c2ccccc2)oc2cc(O)c(O)c(O)c12,inactive: 4.08%,–
CCn1c(CN2CCCCC2)nc2cc(NC(=O)COc3ccc([N+](=O)[O-])cc3)ccc21,inactive: 0.49%,–
COc1ccc(-c2[nH]c(-c3ccccc3)nc2SCC(=O)Nc2ccc3c(c2)OCO3)cc1,inactive: 2%,–
COc1ccc(NC(=O)c2ccc(-c3cccc(Cl)c3C)o2)cc1,inactive: -0.226%,–
CSc1ncc(C(=O)NCc2ccccc2Cl)c(C(F)(F)F)n1,inactive: 0.323%,–
COc1ccc(CN2CCN(c3ncnc4sc5c(c34)CCCC5)CC2)cc1F,inactive: 2.89%,–
CCCN1CCN(CC2=C(C(=O)OCC)C(c3cccc(OC)c3OC)NC(=O)N2)CC1 (stereo not given),inactive: -11.2%,–
CCCCc1nn2c(=O)cc(COC(=O)c3ccc(NC(=O)c4cccc(OC)c4)cc3)nc2s1,inactive: 4.52%,–
CCc1cccc(C)c1NC(=O)C(CC)Sc1nc2ccncc2[nH]1 (stereo not given),inactive: -3.45%,–
CCOc1cccc2sc(NC(=O)c3ccc(S(=O)(=O)N4CCc5ccccc54)cc3)nc12,inactive: 13.6%,–
Cc1ccc2c(CC(=O)Nc3ccc(S(=O)(=O)Nc4nc(C)cc(C)n4)cc3)coc2c1,inactive: 8.64%,–
COc1cc(C2Nc3ccccc3-c3nnc(SCc4ccc(Cl)cc4)nc3O2)ccc1OCC(=O)O (stereo not given),inactive: 6.14%,–
Cc1cc(C)cc(NC(=O)N2CCN(C)c3ncccc32)c1,–,inactive

SMILES,"activity change, negative = inhibition",outcome
CCCCN(C)C(=O)c1ccc2c(c1)N(Cc1cccc(Cl)c1)C(=O)c1ccccc1S2=O (stereo not given),inactive: -8.26%,–
CCOC(=O)CSc1nc2cc3c(cc2c(=O)n1CCCCCC(=O)NCc1ccc2c(c1)OCO2)OCO3,inactive: 9.61%,–
COC(=O)C1=C(C)NC(C)=C(C(=O)OCCCN2CCC(c3ccccc3)(c3ccccc3)CC2)C1c1cccc([N+](=O)[O-])c1 (stereo not given),inactive: -10.6%,–
COc1ccc(-c2noc(-c3cc(C(C)C)[nH]n3)n2)cc1,inactive: 10.6%,–
O=C(NCc1ccc(Cl)cc1)C1(c2cccs2)CCOCC1,inactive: 2.93%,–
O=C(CCCCn1c(=O)c2ccccc2n(Cc2ccccc2F)c1=O)NCc1ccc2c(c1)OCO2,–,inactive
Cc1cc2oc(C(=O)N(Cc3ccc(N(C)C)cc3)CC3CCCO3)c(C)c2cc1C (stereo not given),inactive: -8.66%,–
CCC1=Nc2cc(C(=O)NCCCOC(C)C)ccc2Sc2ccc(C)cc21,inactive: -2.9%,–
Cn1c(=O)cc(OCC(=O)N2CCN(c3ccccc3F)CC2)c2ccccc21,–,inactive
CCOc1ccc(CNC(=O)CN2C(=O)CSc3ccc(S(=O)(=O)N4CCOCC4)cc32)cc1OC,–,inactive
COC(=O)c1ccccc1NC(=O)Cn1ncc2c(C)n(Cc3ccc(F)cc3)c(C)c2c1=O,inactive: -2.22%,–
O=C(Nc1ccc(NC(=O)c2cccs2)cc1)c1ccc(Cl)cc1,inactive: -5.97%,–
Cc1ccc(CNC(=O)C2CCCN(c3nc4c(C)cc(C)cc4s3)C2)cc1 (stereo not given),inactive: 3.61%,–
CC(=O)c1cccc(Nc2cc(C)nc3nc(-c4ccccc4C)nn23)c1,inactive: 52.5%,–
COC(=O)c1ccccc1NC(=O)CCn1nc(C)c2c(C)n(-c3ccccc3)nc2c1=O,inactive: 3.33%,–
CN(C(=O)Cn1c(=O)n(Cc2ccc(C(=O)NCc3ccc4c(c3)OCO4)cc2)c(=O)c2ccccc21)c1ccccc1,–,inactive
O=C(COc1ccccc1)NCCc1csc(-c2ccc(F)cc2)n1,inactive: -6.45%,–
Cc1ccccc1Cc1c(C)nc2c(-c3ccccc3)c(C)[nH]n2c1=O,inactive: 30.9%,–
CCCCOc1ccc(Cn2c(=O)oc3ccccc32)cc1,inactive: -3.23%,–
O=C(Cn1cc(S(=O)(=O)Cc2cccc(Cl)c2)c2ccccc21)Nc1ccc(F)c(Cl)c1,inactive: -3.46%,–
